Laboratory results from article PMC4336329 (PLoS ONE, 2015).
Among all 310,000 compounds or so, about 2,200 (0.71%) showed an effect of 50% or more. The effect is printed as a negative number. The list shows a part of the results.

target: human ether-à-go-go-related gene (hERG) potassium channel (human, UniProt Q12809); test: primary screen, population patch clamp on CHO cells stably expressing hERG
Sequence (Q12809 whole entry, looked up): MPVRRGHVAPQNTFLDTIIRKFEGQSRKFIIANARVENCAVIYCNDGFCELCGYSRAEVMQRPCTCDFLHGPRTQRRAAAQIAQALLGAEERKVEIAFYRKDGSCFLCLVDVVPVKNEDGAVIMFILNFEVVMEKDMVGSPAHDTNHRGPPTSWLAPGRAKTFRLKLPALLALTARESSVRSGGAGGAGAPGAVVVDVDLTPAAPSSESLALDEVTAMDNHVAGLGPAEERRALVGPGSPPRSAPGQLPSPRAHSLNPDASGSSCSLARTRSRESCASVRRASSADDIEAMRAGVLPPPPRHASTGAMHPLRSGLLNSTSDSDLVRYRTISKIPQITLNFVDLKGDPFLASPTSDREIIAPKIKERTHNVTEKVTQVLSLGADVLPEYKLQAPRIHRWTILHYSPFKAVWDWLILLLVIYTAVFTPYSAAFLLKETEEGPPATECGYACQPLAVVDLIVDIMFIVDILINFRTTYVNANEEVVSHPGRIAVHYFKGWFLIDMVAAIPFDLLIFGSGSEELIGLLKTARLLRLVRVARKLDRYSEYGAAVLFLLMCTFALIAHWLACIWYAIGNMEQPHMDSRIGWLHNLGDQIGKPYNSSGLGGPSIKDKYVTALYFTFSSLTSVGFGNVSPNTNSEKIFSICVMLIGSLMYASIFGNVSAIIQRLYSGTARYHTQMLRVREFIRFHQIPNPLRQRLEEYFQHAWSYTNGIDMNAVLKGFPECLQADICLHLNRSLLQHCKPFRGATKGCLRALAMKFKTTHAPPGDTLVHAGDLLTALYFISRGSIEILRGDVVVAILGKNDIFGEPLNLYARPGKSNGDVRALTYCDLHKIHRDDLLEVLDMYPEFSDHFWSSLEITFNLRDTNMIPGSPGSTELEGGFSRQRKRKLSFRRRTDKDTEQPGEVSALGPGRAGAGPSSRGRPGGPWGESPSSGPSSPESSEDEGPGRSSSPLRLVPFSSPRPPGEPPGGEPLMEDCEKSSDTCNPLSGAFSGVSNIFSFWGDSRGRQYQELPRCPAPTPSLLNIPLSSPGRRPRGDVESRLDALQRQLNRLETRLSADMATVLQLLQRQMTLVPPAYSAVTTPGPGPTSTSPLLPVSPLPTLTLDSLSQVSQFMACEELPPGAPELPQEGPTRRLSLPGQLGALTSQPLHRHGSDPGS

Structure (SMILES)	hERG current change (%, negative = inhibition) at 1uM [%]
CN1CCN(Cc2nnc3n2-c2ccc(Cl)cc2C(c2ccccc2)=NC3)CC1.O=CO	-31.9
CC(C)c1ccc(NC(=O)CCc2ccccc2)cc1	19.8
CC1(C)C2([N+](=O)[O-])CN3CC1([N+](=O)[O-])CN(C2)C3c1ccccc1 (stereo not shown)	25.6
CC(=O)c1cn(CC(=O)Nc2cccc(C)c2C)c2ccccc12	6.03
O=C(NCC1CCCO1)C(=O)NCC1CCCN1S(=O)(=O)c1ccccc1 (stereo not shown)	13.5
CCOc1ccc(CC(=O)NNC(=S)NC2CCCCC2)cc1OCC	7.2
OC(C#CCN1CCCCC1)c1ccccc1 (stereo not shown)	4.14
COc1ccc(CN2CCCC(C(=O)N3CCc4ccccc4C3)C2)cc1OC (stereo not shown)	-37.9
COc1cc(OC)c(OC)cc1CNCCNC(=O)c1nonc1N.Cl	6.5
Cc1ccc(S(=O)(=O)N/N=C/c2cc(Br)ccc2O)cc1	10.3
O=C(O)c1ccc(S(=O)(=O)NCC2CCCCC2)cc1	14
Fc1ccc(/C=N/NC(=S)NCCc2ccccc2)cc1F	14.9
Cc1ccc(S(=O)(=O)N2CCN(c3ncnc4sccc34)CC2)cc1	7.75
Cc1ccc(C)c(OCc2nnc(SCC(=O)NC(=O)NCc3ccco3)o2)c1	11.5
O=C(NCc1ccco1)c1ccc2c(=O)n(-c3ccccc3)c(=S)[nH]c2c1	10.4
C=CCn1c(SCC(=O)N2CCOCC2)nc2ccccc2c1=O	-1.58
CNc1cc(CSc2ccc(Cl)cc2)nc(C)n1	14.2
CN(CC(=O)Nc1ccc(Cl)cc1)C(=O)c1sccc1-c1ccccc1	-4.11
O=c1oc2cc(O)ccc2cc1-c1ccc(F)cc1	8.5
COc1cccc(C(=O)C2CCCN(Cc3ccc(OC)c(Cn4cncn4)c3)C2)c1 (stereo not shown)	-20.2
COc1ccc(N(CC(=O)N2CCN(c3cccc(Cl)c3)CC2)S(=O)(=O)c2c(C)noc2C)cc1	15.5
Cc1cc(C)cc(NC(=O)COC(=O)CC2CCCC2)c1	12.4
Cc1cccc(Nc2nc(N3CCOCC3)nc(N3CCOCC3)n2)c1	6.58
CCc1ccc(C(C)NC(=O)Cc2ccc(F)cc2)cc1 (stereo not shown)	14.8
c1csc(-c2ccc(N3CCOCC3)nn2)c1	-22.4
